Test results published in PMC4336329 (PLoS ONE, 2015).
Screen size: about 310,000 compounds; about 2,200 (0.71%) showed an effect of 50% or more. Effects have a minus sign here. The list shows a part of the results.

What follows are molecules tested against human ether-à-go-go-related gene (hERG) potassium channel (human, UniProt Q12809) (assay: primary screen, population patch clamp on CHO cells stably expressing hERG).
human ether-à-go-go-related gene (hERG) potassium channel, sequence (Q12809 whole entry, looked up): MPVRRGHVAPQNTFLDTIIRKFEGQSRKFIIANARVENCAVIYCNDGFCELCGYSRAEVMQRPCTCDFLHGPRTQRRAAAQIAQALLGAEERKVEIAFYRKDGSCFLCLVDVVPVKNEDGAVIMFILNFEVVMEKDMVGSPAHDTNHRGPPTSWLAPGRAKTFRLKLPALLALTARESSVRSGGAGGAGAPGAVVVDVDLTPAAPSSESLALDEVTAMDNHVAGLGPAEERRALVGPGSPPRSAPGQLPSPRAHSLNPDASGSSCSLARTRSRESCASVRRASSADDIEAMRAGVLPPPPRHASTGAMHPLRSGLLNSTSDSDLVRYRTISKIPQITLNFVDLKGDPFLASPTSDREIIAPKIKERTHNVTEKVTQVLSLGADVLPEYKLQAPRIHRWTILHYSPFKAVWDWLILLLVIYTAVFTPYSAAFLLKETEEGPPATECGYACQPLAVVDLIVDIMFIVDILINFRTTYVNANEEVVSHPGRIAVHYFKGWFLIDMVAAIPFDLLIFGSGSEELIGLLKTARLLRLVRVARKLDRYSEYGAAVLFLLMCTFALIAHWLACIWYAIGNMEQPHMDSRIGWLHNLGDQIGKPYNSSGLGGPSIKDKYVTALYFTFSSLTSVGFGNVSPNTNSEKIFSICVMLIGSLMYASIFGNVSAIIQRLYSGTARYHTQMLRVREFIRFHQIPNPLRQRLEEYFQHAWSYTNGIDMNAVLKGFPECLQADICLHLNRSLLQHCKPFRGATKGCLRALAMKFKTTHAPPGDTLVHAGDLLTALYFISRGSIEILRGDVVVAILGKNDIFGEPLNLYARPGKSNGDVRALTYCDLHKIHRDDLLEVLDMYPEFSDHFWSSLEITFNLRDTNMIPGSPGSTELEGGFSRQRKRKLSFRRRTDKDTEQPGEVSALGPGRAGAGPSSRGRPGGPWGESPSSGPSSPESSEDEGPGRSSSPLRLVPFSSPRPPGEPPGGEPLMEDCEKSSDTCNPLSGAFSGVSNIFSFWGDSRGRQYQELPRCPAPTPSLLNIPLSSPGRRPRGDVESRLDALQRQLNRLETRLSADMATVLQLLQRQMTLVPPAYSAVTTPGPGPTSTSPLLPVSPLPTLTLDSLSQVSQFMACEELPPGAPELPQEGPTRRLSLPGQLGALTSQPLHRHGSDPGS

| Compound | hERG current change (%, negative = inhibition) at 1uM [%] |
| --- | --- |
| O=C(CSc1ccccc1C(=O)O)NC1CCCCCCC1 | 14.9 |
| O=C(N/N=C/c1cc(Br)c(O)c(Br)c1O)c1cccnc1 | 4.28 |
| Cc1nn(CC(=O)N2CCC(C)CC2)c(=O)c2nn(-c3ccccc3)c(C)c12 | 16.3 |
| CSC1=N/C(=C\c2ccc(Cl)cc2)C(=O)N1N(C)C | 13.6 |
| CCOC(=O)C1(CCOc2ccccc2)CCN(Cc2ccc(CO)o2)CC1 | -33.7 |
| Cc1c(CN(C)C)c2c(n1C)C(=O)c1ccc(Br)cc1-2.Cl | -2.4 |
| O=[N+]([O-])c1cc(O)c(O)c([N+](=O)[O-])c1 | 9.9 |
| Cc1nn(CC(=O)NCC2CCCO2)c(=O)c2cc3ccccc3n12 (stereo not shown) | 8.41 |
| CC1CCCCC1NC(=O)CNC(=O)c1cccs1 (stereo not shown) | 8.4 |
| CCOC(=S)SCC(=O)N1CCc2ccccc2C1C1C(=O)CC(C)(C)CC1=O (stereo not shown) | 9.52 |
| CCC(Cc1ccccc1)NCc1c(C(=O)O)c(C)n(Cc2ccccc2)c1C (stereo not shown) | 14.6 |
| O=C(O)C1CCN(C(=O)CSc2nc3cc(Cl)ccc3c(=O)n2Cc2ccccc2)CC1 | 8.17 |
| O=C(CSc1ccccn1)Nc1ccc2c(c1)CCC2 | 10.7 |
| O=C(N/N=C\c1ccc(O)c([N+](=O)[O-])c1)C1COc2ccccc2O1 (stereo not shown) | 2 |
| COC(=O)CN1C(=S)N(c2ccc(OC)cc2)C(=O)/C1=C/c1ccc(OC)cc1 | 16.9 |
| Cc1occc1C(=O)Nc1c(Cl)cccc1Cl | 2.45 |
| Cc1ccc(-n2[nH]c(C)c(C=Nc3ccc(S(=O)(=O)Nc4nccs4)cc3)c2=O)c(C)c1 | -0.109 |
| CCOC(=O)C1CCN(/C=C2/C(=O)NC(=S)N(c3ccccc3F)C2=O)CC1 | 9.16 |
| CC(C)(C)C(=O)NC1CCN(CC(=O)Nc2ccc3c(c2)OCO3)CC1 | 21.2 |
| Fc1ccc(NCc2nnc(SCc3nnc(-c4ccccc4)o3)n2Cc2ccccc2)cc1 | -3.89 |
| CCN(CC(=O)Nc1cc(C)nn1-c1nc(C)cc(C)n1)Cc1ccccc1 | -3.97 |
| COc1ccc(-c2cc(C(=O)N/N=C(\C)c3ccco3)c3ccccc3n2)c(OC)c1 | 13.7 |
| CCCCC(=O)Nc1ccc(C(=O)Nc2ccc(S(=O)(=O)Nc3ccc(C)cc3)cc2)cc1 | 10.5 |
| O=C(COc1ccccc1)Nc1cccc(-c2nc3cc4ccccc4cc3[nH]2)c1 | -5.61 |
| COc1ccc(C(=O)N/N=C/C23CC[C@@H](O)CC2(O)CC[C@@H]2[C@@H]3CCC3(C)C(C4=CC(=O)OC4)CCC23O)cc1 (stereo partly shown) | 12.9 |
| CCOc1ccc(/C=N/NC(=O)C2CC2)c(OCC)c1 | 8.23 |
| CC(C)CCNC(=O)COC(=O)c1cc(Br)c(Br)s1 | 10.1 |
| CCn1cc(C(=O)Nc2sc(C)c(C)c2C(=O)OC)cn1 | 7.11 |

| Compound | hERG current change (%, negative = inhibition) at 1uM [%] |
| --- | --- |
| COc1ccc(CCN(C)C(=O)C2CCCN(Cc3ccc(OC)c(OC)c3)C2)cc1OC.O=C(O)C(=O)O (stereo not shown) | 6.13 |
| O=C(c1c(F)cccc1F)N1CCCC(c2nc(-c3cccs3)no2)C1 (stereo not shown) | 7.95 |
| CCCCCCC(=O)N/N=C(\C)Cc1ccccc1 | 17.8 |
| O=C(CN1CCN(c2cccc(Cl)c2)CC1)N1CCCC1 | 12.5 |
| NC(=O)COc1c(-c2ccccc2)oc2ccccc2c1=O | -0.934 |
| Cc1occc1C(=O)NNC(=O)c1cccc(F)c1 | 16.3 |
| N#Cc1cc[n+](CC(=O)c2ccc(NC(=O)c3ccccc3)cc2)cc1.[Br-] | -5.22 |
| CN(C)c1nc(-c2ccccc2)c2cc(Cl)ccc2n1 | 10.4 |
| CN(C)N1C(N)=C(C#N)C(c2ccc(Br)cc2)C2=C1CCCC2=O (stereo not shown) | -15.7 |
| Fc1ccc(-c2cnc3n2CCCCC3)cc1 | 10.4 |
| COc1ccccc1NC(=O)COc1ccc(Br)cc1CO | -1.47 |
| C/C(=N\NC(=O)c1c[nH]c2ccccc12)c1ccco1 | 14.3 |
| O=C(CCN1C(=O)C2C3C=CC(C3)C2C1=O)Nc1c(F)cc(F)cc1Br (stereo not shown) | 10.8 |
| CCOc1ccc(NS(=O)(=O)c2ccc(NC(=O)[C@@H]3CCCC[C@@H]3C(=O)O)cc2)cc1 | 4.82 |
| C[C@H]1C[C@H]2[C@@H]3CCC4=CC(=O)C=C[C@]4(C)[C@@]3(F)[C@@H](O)C[C@]2(C)[C@@]1(O)C(=O)CO | 0.193 |
| CN(c1ccccc1)S(=O)(=O)c1ccc(Cl)c(C(=O)OCC(=O)NC2CCS(=O)(=O)C2)c1 (stereo not shown) | 7.14 |
| CCOc1cc(/C=N/NC(=O)C2CCCC2)ccc1O | 4.9 |
| CCOC(=O)N1CCN(C(=O)c2csc3c2CCCCC3)CC1 | 15.7 |
| COc1cccc(C(=O)Nc2ccc(C(=O)O)cc2)c1 | 8.76 |
| Cc1cc(O)ccc1N1C(=O)c2cccc3cc([N+](=O)[O-])cc(c23)C1=O | 11.3 |
| Cc1cccc(NC(=S)N(CCN(C)C)C(C)c2cccnc2)c1 (stereo not shown) | 1.67 |
| Cc1ccccc1C(=O)NC1CCN(CC(=O)Nc2c(C)cccc2C)CC1 | 8.55 |
| O=C(NNC(=O)c1cc(OCC(F)(F)F)ccc1OCC(F)(F)F)c1ccc(Cl)c(Cl)c1 | 10.9 |
| CC(CO)(CO)N=Cc1c(O)n(-c2cccc3ccccc23)c(=O)[nH]c1=O | 12.7 |
| O=C(CSc1nnc(CN2CCOCC2)n1-c1ccccc1)N1CCc2ccccc21 | 10.6 |
| COc1ccccc1C(=O)NC(CCSC)C(=O)N1CCN(C/C=C/c2ccccc2)CC1 (stereo not shown) | -42.1 |
| CCN1C(=O)[C@H]2[C@@H](c3ccc(C)cc3)N3C(=O)N(c4ccccc4)C(=O)[C@@]3(Cc3ccccc3)[C@H]2C1=O | 6.44 |
